Data taken from the supplement of paper PMC11369174, “Proteome-scale characterisation of motif-based interactome rewiring by disease mutations” (Molecular Systems Biology, 2024).
This is one part of the list. Values come from read counts of a selection and are noisy.

Molecular target: T1, MSN_FERM_1_P26038_1_322
T1 chain: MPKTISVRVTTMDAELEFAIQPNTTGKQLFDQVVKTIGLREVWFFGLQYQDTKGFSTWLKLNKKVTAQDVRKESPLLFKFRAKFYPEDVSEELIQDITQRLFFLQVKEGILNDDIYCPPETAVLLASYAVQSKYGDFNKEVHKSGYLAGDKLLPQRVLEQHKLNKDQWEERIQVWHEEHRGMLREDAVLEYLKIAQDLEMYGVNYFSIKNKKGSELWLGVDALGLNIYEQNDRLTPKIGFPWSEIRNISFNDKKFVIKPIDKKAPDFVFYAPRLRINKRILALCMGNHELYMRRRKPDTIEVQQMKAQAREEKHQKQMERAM
Assay: mean normalised NGS count of phage-displayed peptide after selection on bait (% of reads); baits are purified protein domains named by gene / domain / UniProt id / residues; peptides come from disordered regions of human proteins; higher = stronger enrichment / binding
Conditions: replicate selections in which the peptide was seen: 5

| Binder | mean normalised NGS count |
| --- | --- |
| YSVSTIEPREDLLSPV [SLITRK5 833-848 wt] | 0.0468 |
| MFQLPTLNFSPEQVDS [SIX3 79-94 mut O95343.A93D] | 0.329 |
| WMVPTSVERLGEGGSI [SETD5 1166-1181 mut Q9C0A6.R1176G] | 0.457 |
| SYSISGILGITSPSAD [PAX5 178-193 wt] | 0.552 |
| TYTPNVHMVSTTLPVD [RAF1 258-273 mut P04049.S259Y] | 1.29 |
| YDVYGGENEVIPEVLR [STOX1 607-622 mut Q6ZVD7.E608D] | 0.0681 |
| YYDFSKGIDHKKSDDR [UBIAD1 104-119 wt] | 0.0184 |
| YAFPPPSQYNVSEIPS [ARSB 449-464 mut P15848.W450C] | 2.97 |
| YEVSSSLGYTSTGDVL [DEPDC5 543-558 mut O75140.R555G] | 0.087 |
| GYVVEHQKVGDKAWIK [TTN 21633-21648 mut Q8WZ42.E21644K] | 0.0608 |
| YEVYGGENEVIPEVLR [STOX1 607-622 wt] | 0.0305 |
| YQVSTHKQSESAHGRT [FLG 2416-2431 mut P20930.E2422K] | 0.0469 |

Molecular target: T2, RDX_FERM_1_P35241_5_295
T2 chain: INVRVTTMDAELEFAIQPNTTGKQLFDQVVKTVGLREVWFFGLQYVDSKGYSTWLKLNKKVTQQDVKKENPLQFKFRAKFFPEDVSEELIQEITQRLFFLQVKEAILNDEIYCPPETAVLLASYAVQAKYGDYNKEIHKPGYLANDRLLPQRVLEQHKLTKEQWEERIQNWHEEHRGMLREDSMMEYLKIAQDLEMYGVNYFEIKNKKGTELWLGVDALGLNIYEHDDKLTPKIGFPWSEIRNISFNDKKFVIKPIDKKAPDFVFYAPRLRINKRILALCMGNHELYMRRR
Assay: as above
Conditions: replicate selections in which the peptide was seen: 3

| Binder | mean normalised NGS count |
| --- | --- |
| MFQLPTLNFSPEQVDS [SIX3 79-94 mut O95343.A93D] | 0.0786 |
| SWDVPENDGGAPVKNY [TTN 27224-27239 wt] | 0.0852 |
| YYDFSKGIDHKKSDDG [UBIAD1 104-119 mut Q9Y5Z9.R119G] | 0.039 |
| PTKIREYTLTHLPQGA [TTN 31013-31028 wt] | 0.012 |
| YDLLPFLSSTISPYYA [CRYAA 34-49 mut P02489.R49C] | 0.107 |
| YYDFSKGIDHKKSDGR [UBIAD1 104-119 mut Q9Y5Z9.D118G] | 0.0697 |
| KYSLTPVNPAGEKAVF [TTN 19602-19617 mut Q8WZ42.L19607P] | 0.827 |
| YTYNVSNLDVGQLSAP [KMT2D 4894-4909 mut O14686.R4904G] | 0.00618 |

Molecular target: T1, MSN_FERM_1_P26038_1_322
Assay: as above
Conditions: replicate selections in which the peptide was seen: 6

| Binder | mean normalised NGS count |
| --- | --- |
| SWDVPENDGGAPVKNY [TTN 27224-27239 wt] | 0.134 |
| LFQITTSADWDGLLAP [SCN1A 1717-1732 mut P35498.G1725D] | 0.497 |
| LFQITTSADWDGLLAP [SCN3A 1717-1732 mut P35498.G1725D] | 0.497 |
| LFQITTSADWDGLLAP [SCN9A 1717-1732 mut P35498.G1725D] | 0.497 |
| PTKIREYTLTHLPQGA [TTN 31013-31028 wt] | 0.051 |
| LFQITTSADWDGLLAP [SCN8A 1717-1732 mut P35498.G1725D] | 0.497 |
| AYLVQRGAEDRDWQQQ [OPTN 532-547 mut Q96CV9.R545Q] | 0.214 |
| YDLLPFLSSTISPYYA [CRYAA 34-49 mut P02489.R49C] | 0.476 |
| MFQLPTLNFSPEQGAS [SIX3 79-94 mut O95343.V92G] | 0.458 |
| QWYPVTLPTGSGGSGG [SYNGAP1 361-376 wt] | 0.0726 |
| KYSLTPVNPAGEKAVF [TTN 19602-19617 mut Q8WZ42.L19607P] | 0.837 |
| LFQITTSADWDGLLAP [SCN5A 1717-1732 mut P35498.G1725D] | 0.497 |
| YTFPELKLTNAPGSFT [BRCA1 695-710 mut P38398.D695Y] | 0.0415 |
| LFQITTSADWDGLLAP [SCN2A 1717-1732 mut P35498.G1725D] | 0.497 |
| KYSLTLVNPAGEKAVF [TTN 19602-19617 wt] | 0.532 |
| AYLVQRGAEDRDWRQQ [OPTN 532-547 wt] | 0.0688 |
| LFQITTSADWDGLLAP [SCN10A 1717-1732 mut P35498.G1725D] | 0.497 |

Molecular target: T2, RDX_FERM_1_P35241_5_295
Assay: as above
Conditions: replicate selections in which the peptide was seen: 5

| Binder | mean normalised NGS count |
| --- | --- |
| SYSISGILGITSPSAD [PAX5 178-193 wt] | 5.94 |
| QTSKRHDSYTFPELKL [BRCA1 687-702 mut P38398.D695Y] | 0.205 |

Same assay, conditions: replicate selections in which the peptide was seen: 4

| Binder | mean normalised NGS count |
| --- | --- |
| TYTPNVHMVSTTLPVD [RAF1 258-273 mut P04049.S259Y] | 0.109 |
| YYDFSKGIDHKKSDDR [UBIAD1 104-119 wt] | 0.126 |
| MFQLPTLNFSPEQGAS [SIX3 79-94 mut O95343.V92G] | 0.0965 |

Molecular target: T1, MSN_FERM_1_P26038_1_322
Assay: as above
Conditions: replicate selections in which the peptide was seen: 4

| Binder | mean normalised NGS count |
| --- | --- |
| FYQVSATRNEKMRHSI [BRCA2 2382-2397 mut P51587.L2396S] | 0.475 |
| RYDVDDPFSVEEGVSY [SLC7A14 695-710 mut Q8TBB6.F708V] | 0.0194 |
| GYVVEHQKVGDEAWIK [TTN 21633-21648 wt] | 0.0681 |
| QTSKRHDSYTFPELKL [BRCA1 687-702 mut P38398.D695Y] | 0.117 |
| SYDTGEVKVTVENPEG [TTN 1904-1919 mut Q8WZ42.A1914V] | 0.136 |
| EYQFHVKAYNEKGKSD [TTN 25207-25222 mut Q8WZ42.R25211H] | 0.0637 |
| EYNVESIDGQPSAFTA [RPL5 129-144 mut P46777.G140S] | 0.0811 |
| MYDIISSPSKDSTKLT [NIPBL 344-359 wt] | 0.104 |
| SFQVNTSKAGVAPLQV [FLNA 1470-1485 mut P21333.D1474N] | 28.2 |
| YTYNVSNLDVGQLSAP [KMT2D 4894-4909 mut O14686.R4904G] | 0.0273 |
| EYNVESIDGQPGAFTA [RPL5 129-144 wt] | 0.0248 |
| MYNIQSQAPSITESST [CBL 734-749 wt] | 0.327 |
| SWDVPENDGRAPVKNY [TTN 27224-27239 mut Q8WZ42.G27233R] | 0.0789 |

Same assay, conditions: replicate selections in which the peptide was seen: 3

| Binder | mean normalised NGS count |
| --- | --- |
| YYDFSKGIDHKKSDDG [UBIAD1 104-119 mut Q9Y5Z9.R119G] | 0.0109 |
| YYDFSKGIDHKKSDGR [UBIAD1 104-119 mut Q9Y5Z9.D118G] | 0.0219 |

Molecular target: NCK1_SH3_1_P16333_5_60
Assay: as above
Conditions: replicate selections in which the peptide was seen: 2

| Binder | mean normalised NGS count |
| --- | --- |
| SPKAPVPLLPPLPPPP [MECP2 375-390 wt] | 0.00925 |
| FPPLPPPPPEPESSED [MECP2 383-398 mut P51608.L383F] | 0.00626 |

Same assay, conditions: replicate selections in which the peptide was seen: 6

| Binder | mean normalised NGS count |
| --- | --- |
| WPLPQPPSPMPAASAQ [FOXL2 204-219 mut P58012.Y215C] | 0.51 |
| SPKAPVPLFPPLPPPP [MECP2 375-390 mut P51608.L383F] | 0.393 |

Molecular target: Src_SH3__P12931_87_144
Assay: as above
Conditions: replicate selections in which the peptide was seen: 6

| Binder | mean normalised NGS count |
| --- | --- |
| WPLPQPPSPMPAASAQ [FOXL2 204-219 mut P58012.Y215C] | 0.573 |

Molecular target: OXSR1___O95747_434_527
Sequence (chain, as listed by the source): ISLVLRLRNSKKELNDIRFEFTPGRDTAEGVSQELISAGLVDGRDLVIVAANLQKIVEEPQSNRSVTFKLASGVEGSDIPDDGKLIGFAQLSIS
Assay: as above
Conditions: replicate selections in which the peptide was seen: 2

| Binder | mean normalised NGS count |
| --- | --- |
| PGWLVTVVEEKELVRR [SRCAP 2751-2766 mut Q6ZRS2.R2753W] | 1.12 |
| KRNIVVKTVEMRDGEV [GFAP 405-420 wt] | 0.108 |

Molecular target: Src_SH3__P12931_87_144
Assay: as above
Conditions: replicate selections in which the peptide was seen: 4

| Binder | mean normalised NGS count |
| --- | --- |
| SPKAPVPLFPPLPPPP [MECP2 375-390 mut P51608.L383F] | 0.0551 |

Molecular target: T2, RDX_FERM_1_P35241_5_295
Assay: as above
Conditions: replicate selections in which the peptide was seen: 2

| Binder | mean normalised NGS count |
| --- | --- |
| MYDIISSPSKDSTKLT [NIPBL 344-359 wt] | 0.00645 |

Molecular target: OXSR1___O95747_434_527
Assay: as above
Conditions: replicate selections in which the peptide was seen: 3

| Binder | mean normalised NGS count |
| --- | --- |
| FEGMRFVVNALIGAIP [SCN9A 1304-1319 mut Q15858.V1309F] | 25.5 |
| HEPGKLQFEVQKVDRP [TTN 1952-1967 wt] | 1.79 |

Molecular target: T2, RDX_FERM_1_P35241_5_295
Assay: as above
Conditions: replicate selections in which the peptide was seen: 6

| Binder | mean normalised NGS count |
| --- | --- |
| MYNIQSQAPSITESST [CBL 734-749 wt] | 24.7 |
